Results published in PubChem BioAssay AID463173 (ICCB-Longwood Screening Facility, Harvard Medical School, 2010).
About 4,300 (8.3%) of roughly 52,000 compounds were called active. Cut-off read from the data, not from the text of the source: active = survival mostly below about 52% (no sharp cut-off); inactive = mostly above about 56%. The list shows a part of the results.

What follows are compounds tested on DeltatarO mutant (assay: growth inhibition of S. aureus wild type versus tarO mutant, primary screen, teichoic acid synthesis inhibitors, RN4220, OD600 (AID 463173)). Conditions: OD600, 18 h, hits give low values, screened at 18.75 µg/mL (by protocol).

Structure (SMILES)	survival
Cc1ccc2c(CC(=O)Nc3cc(C(F)(F)F)ccc3Cl)coc2c1C	inactive: 91%
CCC12CN3CC(CC)(CN(C1)C3c1ccc(OCc3ccccc3)cc1)C2=O (stereo not given)	inactive: 92%
Cc1ccc2oc(=O)n(CCNC(=O)Nc3ccccc3Cl)c2c1	inactive: 72%
COc1ccc(C2CC(=O)Nc3c2c(=O)nc2c(C)cccn32)cc1 (stereo not given)	inactive: 67%
COc1ccc2oc(=O)c(C(=O)N3CCC(C(N)=O)CC3)cc2c1	inactive: 79%
CCOC(=O)c1c(C)[nH]c(C)c1S(=O)(=O)N1CCC(C(=O)Nc2ccccn2)CC1	inactive: 90%
CCCCOc1cccc(C(=O)Nc2cccc3ccc(C)nc23)c1	inactive: 75%
COc1cccc(C(=O)Nc2nnc(S(=O)(=O)N3CCOCC3)s2)c1	inactive: 69%
COc1cc(OC)cc(C(=O)Nc2ccc3nc(N4CCC(C)CC4)cc(C)c3c2)c1	inactive: 51%
Cc1ccc(CS(=O)(=O)Cc2ccc(C(=O)NCCc3ccc(Cl)cc3)o2)cc1	inactive: 84%
Cc1cccc(NC(=O)CSc2nc3c(oc4ccccc43)c(=O)n2C(C)C)c1	inactive: 63%
COc1ccc(N2CCN(C(c3ccccc3)c3nnc(-c4ccccc4Cl)o3)CC2)cc1 (stereo not given)	inactive: 49%
COc1cccc(CNC(=O)Cn2ncc3c4ccccc4n(C)c3c2=O)c1	inactive: 74%
COCCNC(=O)CCCn1c(SCC(=O)Nc2cccc(C)c2)nc2c(sc3ccccc32)c1=O	inactive: 90%
CC1=C(C(=O)NCCc2ccc(Cl)cc2)C2(CCCCC2)OC1=O	inactive: 80%
O=C(CN1CCOCC1)Nc1c(-c2ccccc2)c2cc(Br)ccc2[nH]c1=O	inactive: 103%
COc1ccc(C(=O)c2oc3ccccc3c2NC(=O)COc2c(C)cc(C)cc2C)cc1	inactive: 79%
O=c1oc2ccc(Br)cc2cc1-c1nc(-c2ccccc2)no1	inactive: 76%
O=C(Oc1ccc2ccccc2c1)N1CCOCC1	inactive: 92%
CCC(C)NC(=O)C1CCC(CNS(=O)(=O)c2cccc3nsnc23)CC1 (stereo not given)	inactive: 93%
COc1ccc(Br)cc1CN1CCN(C(=O)c2cccc(OC)c2OC)CC1	inactive: 71%
O=C(CN1CCCCC1)N/N=C/c1ccc(/C=N/NC(=O)CN2CCCCC2)cc1	inactive: 98%
CCc1ccc(-c2nc3c(c(SCc4ccc(F)cc4)n2)Cc2c(CO)cnc(C)c2O3)cc1	inactive: 60%

Structure (SMILES)	survival
COc1cc(-c2noc(-c3ccc(NCCc4ccccc4)c([N+](=O)[O-])c3)n2)cc(OC)c1OC	inactive: 66%
NC1=NN(c2cccc(C(=O)O)c2)C(=O)C1	inactive: 78%
COc1cc(NC(=O)CCNS(=O)(=O)c2ccc3c(c2)CCN3C(=O)C2CC2)cc(OC)c1	inactive: 87%
COCC(=O)N1CCc2cc(OC)c(OC)cc2C1COc1ccc2c(C)cc(=O)oc2c1 (stereo not given)	inactive: 76%
Cc1ccc(C)c(N2CCN(C(=O)c3ccc4c(Cl)c5c(nc4c3)CCCC5)CC2)c1	inactive: 98%
COc1cccc(CNC(=O)c2c(O)nc3ccccn3c2=O)c1	active: 43%
COc1ccc(Cc2nnc(SCC(N)=O)o2)cc1	inactive: 76%
CCOc1ccc(N2CC(c3nc4ccccc4n3CC(C)C)CC2=O)cc1 (stereo not given)	inactive: 56%
CCc1ccc(CN(Cc2ccco2)C(=O)c2cc(-c3ccc(Cl)cc3)on2)cc1	inactive: 75%
Cc1cc2c(cc1S(=O)(=O)Nc1cccc(C(F)(F)F)c1)OCCN2C	inactive: 86%
CCOc1ccc(-c2nonc2NC(=O)c2ccccc2C)cc1	inactive: 107%
COc1ccc2c(Sc3ccccc3)c(C(=O)NCCN(C)C)[nH]c2c1	inactive: 98%
CCN(CC)C(=O)c1sc2c(c1C)c(=O)n(-c1ccc(C)c(C)c1)c(=O)n2CC(=O)Nc1ccc(F)cc1	inactive: 92%
O=C(Cc1ccc(Cl)cc1)Nc1ccc2oc(-c3ccccc3)nc2c1	inactive: 67%
CC(C)Oc1ccc(CNC(=O)Cc2ccc(NC(=O)N3CCSc4ncccc43)cc2)cc1	inactive: 102%
Cc1ccc(Cl)cc1NC(=O)NC1COc2ccccc2C1 (stereo not given)	inactive: 64%
CC(C)(C)C1CCc2c(sc(NC(=O)c3ccccc3F)c2C(=O)N2CCCCC2)C1 (stereo not given)	active: -5%
CC(C)Cn1c(=O)c2sccc2n2c(CCCC(=O)Nc3ccc(Cl)cc3)nnc12	inactive: 81%
CS(=O)(=O)c1ncc(N(Cc2ccccc2)Cc2ccco2)c(C(=O)Nc2cccc(C(F)(F)F)c2)n1	inactive: 52%
Cc1cc(C)c(NC(=O)CSc2nc(=O)n(Cc3ccco3)c3c2CCC3)c(C)c1	inactive: 71%
O=C(NCCc1ccc(Cl)cc1)c1ccc2nc(Cc3ccccc3)oc2c1	inactive: 94%
Fc1ccc(-c2csc(-c3nc(-c4ccc(Br)s4)cs3)n2)cc1	inactive: 80%
Cc1cc(SCCN2CCOCC2)nc2ccccc12	inactive: 68%

Structure (SMILES)	survival
Cc1cc2ncn(CCC(=O)Nc3ccccc3F)c2cc1C	inactive: 103%
CC1CCCCN1C(=O)CSc1nnc(-c2cccc(Cl)c2)o1 (stereo not given)	inactive: 96%
CC(=O)N1CCCc2cc(S(=O)(=O)N(C)CC(=O)Nc3ccc(F)c(Cl)c3)ccc21	inactive: 99%
CCOc1ccc(NC(=O)CCCN2C(=O)C(c3ccccc3)Oc3cccnc32)cc1 (stereo not given)	inactive: 83%
C1CCC2(CC1)C1=C(CCCC1)Nc1nnnn12	inactive: 91%
CCC(Cn1nnc2ccccc2c1=O)NC(=O)Nc1cc(Cl)ccc1OC (stereo not given)	inactive: 71%
Cc1ccc(-n2ncc(C(=O)NCc3cccs3)c2C2CCN(C(=O)OC(C)(C)C)CC2)cc1C	inactive: 91%
CC(C)CN(CCNC(=O)c1cc(=O)[nH]c2ccc(S(=O)(=O)N3CCCCCC3)cc12)CC(C)C	inactive: 86%
Cn1c(=O)oc2cc(S(=O)(=O)NCCC(=O)Nc3ccc(F)c(Cl)c3)ccc21	inactive: 83%
Cc1ccc(C)c(OCCOCCn2c(-c3ccc(Br)cc3)nc3ccccc3c2=O)c1C	inactive: 61%
Cc1cccc(Cn2c(CNS(=O)(=O)c3ccc(Cl)s3)nc3cccnc32)c1	inactive: 103%
Cc1ccc2[nH]c(CSc3nnc(NC(=O)COc4ccccc4F)s3)cc(=O)c2c1	inactive: 67%
CCOc1ccc(-c2cc3c(=O)n(CC(=O)Nc4c(C)cccc4C)ccn3n2)cc1	inactive: 79%
OC(COc1ccc(Cl)cc1Cl)CN1CCCCC1 (stereo not given)	inactive: 70%
CCOc1ccc(CCNC(=O)C2=C(C)C(=O)OC23CCC(C)CC3)cc1OCC (stereo not given)	inactive: 78%
CCCCCn1c(=O)[nH]c2cc(C(=O)NCc3ccc(C)cc3)ccc2c1=O	inactive: 74%
O=C(CN(C(=O)c1cc2c(s1)CCC2)C1CCCC1)NCc1cccs1	inactive: 88%
COc1cccc(NC(=O)CSc2nc(-c3ccccc3)nc3c2Cc2cc(Cl)ccc2O3)c1	inactive: 100%
Cc1ccc(C(=O)c2oc3ccccc3c2NC(=O)c2nc(S(C)(=O)=O)ncc2Cl)cc1F	inactive: 65%
Cc1ccc(NC(=O)c2ccc3nc(Cc4ccccc4)oc3c2)cc1F	active: 25%
CCN(CC)c1ccc2cc(-c3nnc(-c4cccc(Cl)c4)o3)c(=O)oc2c1	inactive: 69%
CCCCN(C)CCNC(=O)Cn1ncc2c3ccccc3n(CCC)c2c1=O	inactive: 109%
COc1ccc(C2(O)CCN(CC(=O)NC(C)C)CC2)cc1	inactive: 81%

Structure (SMILES)	survival
Cc1csc2nc(-c3cccc(NC(=O)c4cccc(F)c4)c3)cn12	inactive: 124%
Cc1ccc(NC(=O)c2ncn(-c3ccccc3)n2)c(Cl)c1	inactive: 81%
Cc1cccc(-c2noc(CN(C(=O)c3ccc(C)c(C)c3)C(C)C)n2)c1	active: -3%
COc1ccc(C)cc1N(C)C(=O)c1sc2nc3n(c(=O)c2c1C)CCCCC3	inactive: 58%
CCOC(=O)Cn1nnnc1CN(CCc1ccc(OC)c(OC)c1)Cc1cc2c(C)ccc(C)c2[nH]c1=O	inactive: 85%
CN(C(=O)c1cc2sccc2n1C)C1CCCCC1	inactive: 100%
Cc1nc2cc(-c3cccc(F)c3)nn2c(C)c1CCC(=O)N1CCN(c2ccc(F)cc2)CC1	inactive: 56%
CCOC(=O)c1cccc(NC(=O)CC(c2ccc(F)cc2)N2Cc3ccccc3C2=O)c1 (stereo not given)	inactive: 92%
O=S(=O)(c1ccccc1)c1nc(-c2ccc(F)cc2)oc1N1CCOCC1	inactive: 90%
CCOc1cc(C#N)c(NC(=O)c2ccc(OC)c(S(=O)(=O)N3CCCC3)c2)cc1OCC	inactive: 52%
CCCOc1ccc(OC(=O)c2sc3ncn(Cc4cccc(F)c4)c(=O)c3c2C)cc1	inactive: 84%
O=C(c1nc(-c2ccc(Cl)cc2)n2c1CCCCC2)N1CCN(c2ccc(F)cc2)CC1	inactive: 94%
CCN(Cc1ccccc1)C(=O)C1CCN(Cc2cc(Br)c(O)c(OC)c2)CC1	inactive: 105%
N#CC1=C(N)OC2=C(C(=O)CCC2)C1c1ccccc1C(F)(F)F (stereo not given)	inactive: 78%
O=C(O)c1ccc(N2CCOCC2)cc1	inactive: 80%
CCOc1ccc(CCNC(=O)CSc2cc(=O)n(C)c3ccccc23)cc1OCC	inactive: 132%
O=C(NCC1(c2ccccc2)CCCC1)C(=O)Nc1cccc(C(F)(F)F)c1	inactive: 101%
COc1ccc2nc(NS(=O)(=O)c3ccc(C)cc3)c(Nc3cc(Cl)ccc3OC)nc2c1	active: 22%
CC1CCCc2c1nc(N)c(C#N)c2-c1ccccc1 (stereo not given)	inactive: 105%
CCOc1ccc(CC(=O)NCCc2csc3nc(-c4ccccc4F)nn23)cc1	inactive: 91%
Cc1noc(/C=C/N(C)C)c1S(=O)(=O)N1CCCC(C(=O)Nc2cccc(F)c2)C1 (stereo not given)	inactive: 90%
